The inconclusive results got no clear call from the source; some entries with a clear call stand among them for comparison. No potency is given beside an inconclusive call; the fits are too rough. Activity calls are given as the source filed them. Unless noted, calls follow the shape of the dose curve; as a rule, active = well fitted activation curve with a large enough effect in the main read-out, with a control signal flat (not every such curve was filed as active); inconclusive = small, poorly fitted or top-dose-only effect, or effect the other way, or a change in a side signal; inactive = flat fitted curve, though single readings scatter.
Target: Mitogen-activated protein kinase 10 (Mus musculus) (UniProt Q61831)
Test: JNK3 AlphaScreen Assay (AID 530; active = well fitted curve in either direction with a large enough effect, not every such curve was filed as active; inconclusive = small, poorly fitted or top-dose-only effect, or another doubt;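 also: kinase came from lysate of stimulated human HepG2 cells; signal reports phosphorylation of biotinylated GST-cJun 1-79 at Ser73 with 10 µM ATP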; as to activity change, negative = inhibition: % is scaled to controls: 0 for no effect and ±100 for the full control effect)
Settings: JNK3 lysate, c-Jun phosphorylation; activity change, negative = inhibition: at 57.1 µM (top of the series)
Method in brief: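 Phosphorylation of biotinylated GST-cJun(1-79) at Ser73 is measured by AlphaScreen proximity luminescence. Enzyme is JNK3 in HepG2 lysates activated with interleukin-1beta and tumor necrosis factor alpha; ATP is 10 uM final.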
Potency is read from the fitted curve at half-maximal effect; tags tell the direction and shape of the fitted curve.

| Structure (SMILES) | activity change, negative = inhibition | Potency |
| --- | --- | --- |
| COc1ccc2[nH]cc(CCNc3cc(-c4c(C)noc4C)ncn3)c2c1 | inactive: -18.8% |  |
| FC(F)(F)c1ccccc1-c1cc(NCc2cccs2)ncn1 | inactive: 5.01% |  |
| COc1ccccc1-c1nccc(NCc2cccnc2)n1 |  | inconclusive [inhibitor, single point] |
| O=c1cnc2cnc(Nc3ccccc3)nc2n1Cc1ccc(F)cc1 | inactive: 1.57% |  |
| CC(=O)NCCNc1ccnc(-c2ccccc2C(F)(F)F)n1 | inactive: 1.74% |  |
| CN(C)c1ccc(-c2cncnc2Nc2ccccc2)cc1 |  | inconclusive [inhibitor, partial curve] |
| COc1ccc2[nH]cc(CCNc3ncncc3-c3c(C)noc3C)c2c1 | inactive: -4.58% |  |
| COc1ccc(CNc2ccnc(-c3cccnc3)n2)c(OC)c1 |  | inconclusive [inhibitor, single point] |
| CN(C)c1ncc2nc(-c3ccccc3)c(=O)n(C[C@H]3CCCO3)c2n1 |  | inconclusive [activator, full curve, poor fit] |
| COc1ccccc1-c1nc(N(C)Cc2ccco2)c2ccccc2n1 | inactive: -11.7% |  |

Target: 3',5'-cyclic-AMP phosphodiesterase 4B (Homo sapiens) (UniProt Q07343)
Chain of UniProt Q07343 (Q07343 whole entry, looked up): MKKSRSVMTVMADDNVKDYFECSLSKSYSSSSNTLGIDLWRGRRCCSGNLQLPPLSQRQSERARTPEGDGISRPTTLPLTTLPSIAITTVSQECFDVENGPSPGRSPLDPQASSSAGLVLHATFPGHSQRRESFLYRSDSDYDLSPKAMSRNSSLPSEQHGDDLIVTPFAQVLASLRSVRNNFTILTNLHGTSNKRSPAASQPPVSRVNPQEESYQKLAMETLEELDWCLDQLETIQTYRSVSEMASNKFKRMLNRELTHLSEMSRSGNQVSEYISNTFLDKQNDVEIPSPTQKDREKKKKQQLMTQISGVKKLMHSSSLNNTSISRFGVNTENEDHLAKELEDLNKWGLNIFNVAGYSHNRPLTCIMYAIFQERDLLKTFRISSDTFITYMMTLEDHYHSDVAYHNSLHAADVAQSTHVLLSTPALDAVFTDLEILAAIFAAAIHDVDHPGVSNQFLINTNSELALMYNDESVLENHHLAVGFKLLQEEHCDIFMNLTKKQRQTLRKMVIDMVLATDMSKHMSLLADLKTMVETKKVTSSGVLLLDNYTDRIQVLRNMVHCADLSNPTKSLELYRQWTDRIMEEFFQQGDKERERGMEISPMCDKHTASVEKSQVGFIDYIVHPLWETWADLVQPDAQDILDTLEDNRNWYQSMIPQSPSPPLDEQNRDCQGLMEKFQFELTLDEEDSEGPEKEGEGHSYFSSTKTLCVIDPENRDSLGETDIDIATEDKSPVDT
Test: qHTS Assay for Inhibitors of PDE-IV (AID 607); as to activation (PDE inhibition): % of control where 0% means no effect
Settings: HEK293 ACTOne CNG channel cells, membrane potential fluorescence; activation (PDE inhibition): at 22.9 µM (top of the series)
Method in brief: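 The readout is membrane depolarisation from a cAMP-sensing CNG channel, detected with a potential dye at ex 535/em 590. Cells were HEK293-derived (endogenous PDE-IV) at 1000 cells/well, titrated up to 22.9 uM final.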

| Structure (SMILES) | Potency | activation (PDE inhibition) |
| --- | --- | --- |
| c1ccc(Nc2ncncc2-c2ccoc2)cc1 | inconclusive [activator, single point] |  |
| CC(=O)NCCNc1ccnc(-c2ccccc2C)n1 |  | inactive: -3.62% |
| CCNc1ncc2nc(C)c(=O)n(-c3ccc(OC)cc3)c2n1 | inconclusive [activator, full curve] |  |
| CCNc1ncc2nc(C)c(=O)n(C)c2n1 | inconclusive [activator, partial curve] |  |
| O=c1cnc2cnc(Nc3ccccc3)nc2n1Cc1ccc(F)cc1 | inconclusive [activator, partial curve] |  |
| COc1ccc(CNc2ncncc2-c2ccc(N(C)C)cc2)c(OC)c1 | inconclusive [activator, single point] |  |
| c1ccc(CNc2ncnc3ccc(-c4ccoc4)cc23)cc1 |  | inactive: 10.1% |
| c1ccc(CNc2nc(-c3ccoc3)nc3ccccc23)cc1 | inconclusive [activator, partial curve] |  |
| COc1ccccc1-c1cncnc1NCc1cccs1 | inconclusive [rising, partial curve] |  |
| CCNc1ncc2nc(C)c(=O)n(C3CC3)c2n1 | active: 2.51 µM |  |
| CN(C)c1ccc(-c2cncnc2Nc2ccccc2)cc1 | inconclusive [activator, partial curve] |  |
| COc1cccc(Cn2c(=O)cnc3cnc(Oc4ccccc4)nc32)c1 | inconclusive [activator, partial curve] |  |
| FC(F)(F)c1ccccc1-c1cc(NCc2ccccc2)ncn1 | inconclusive [activator, single point] |  |
| CN(C)c1ncc2nc(-c3ccccc3)c(=O)n(C[C@H]3CCCO3)c2n1 | inconclusive [activator, partial curve] |  |
| COc1cccc(-c2cncnc2NCc2cccs2)c1 | inconclusive [activator, partial curve] |  |
| CCNc1ncc2nc(C)c(=O)n(Cc3cccs3)c2n1 | inconclusive [activator, partial curve] |  |
| COCCn1c(=O)c(-c2cccc(F)c2)nc2cncnc21 | inconclusive [activator, single point] |  |
| COc1ccc(CNc2cc(-c3ccccc3Cl)ncn2)c(OC)c1 | inconclusive [rising, partial curve] |  |
| COc1ccccc1CNc1ccnc(-c2ccccc2CN(C)C)n1 | inconclusive [rising, partial curve] |  |
| COc1ccccc1-c1nc(N(C)Cc2ccco2)c2ccccc2n1 | inconclusive [rising, partial curve] |  |
| O=c1c(-c2cccs2)nc2cncnc2n1-c1ccccc1 | inconclusive [activator, partial curve] |  |

Target: Cytochrome P450 2C9 (Homo sapiens) (UniProt P11712)
Chain of UniProt P11712 (P11712 whole entry, looked up): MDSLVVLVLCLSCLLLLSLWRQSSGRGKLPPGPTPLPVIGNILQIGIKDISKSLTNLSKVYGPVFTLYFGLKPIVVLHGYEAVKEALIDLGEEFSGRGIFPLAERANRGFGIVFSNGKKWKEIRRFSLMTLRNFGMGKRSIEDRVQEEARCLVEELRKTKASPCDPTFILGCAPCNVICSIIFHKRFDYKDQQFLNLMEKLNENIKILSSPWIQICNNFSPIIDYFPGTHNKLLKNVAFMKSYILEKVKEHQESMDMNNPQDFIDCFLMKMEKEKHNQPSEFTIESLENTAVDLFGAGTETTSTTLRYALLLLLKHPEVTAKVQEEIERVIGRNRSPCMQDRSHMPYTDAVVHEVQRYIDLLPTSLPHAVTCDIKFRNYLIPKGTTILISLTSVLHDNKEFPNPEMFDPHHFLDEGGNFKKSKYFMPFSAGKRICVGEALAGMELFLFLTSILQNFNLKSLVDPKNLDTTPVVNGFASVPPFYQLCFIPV
Test: qHTS Assay for Inhibitors and Substrates of Cytochrome P450 2C9 (AID 883; active = well fitted inhibition curve with a large enough effect; inconclusive = small, poorly fitted or top-dose-only effect; inactive = no such curve, though single readings can be large or run the other way; also: nearly all actives have a fitted effect of over 60% in size)
Settings: recombinant CYP2C9, luciferin-H luminescence, 60 min; activity change, negative = inhibition: at 57.1 µM (top of the series)
Method in brief: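 A luminogenic readout tracked human CYP2C9 (10nM) converting deoxyluciferin (100uM, at KM) in 25mM KPO4 during 60 min at 37C with regenerated NADPH. Values normalized to 57uM sulphaphenazole as complete inhibition.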

| Structure (SMILES) | Potency |
| --- | --- |
| O=c1cnc2cnc(Nc3ccccc3)nc2n1Cc1ccc(F)cc1 | inconclusive [inhibitor, full curve] |
| COc1ccc2[nH]cc(CCNc3ncncc3-c3c(C)noc3C)c2c1 | inconclusive [inhibitor, single point] |
| CN(C)c1ccc(-c2cncnc2NCc2cccnc2)cc1 | inconclusive [inhibitor, partial curve] |

Target: Cytochrome P450 3A4 (Homo sapiens) (UniProt P08684)
Chain of UniProt P08684 (P08684 whole entry, looked up): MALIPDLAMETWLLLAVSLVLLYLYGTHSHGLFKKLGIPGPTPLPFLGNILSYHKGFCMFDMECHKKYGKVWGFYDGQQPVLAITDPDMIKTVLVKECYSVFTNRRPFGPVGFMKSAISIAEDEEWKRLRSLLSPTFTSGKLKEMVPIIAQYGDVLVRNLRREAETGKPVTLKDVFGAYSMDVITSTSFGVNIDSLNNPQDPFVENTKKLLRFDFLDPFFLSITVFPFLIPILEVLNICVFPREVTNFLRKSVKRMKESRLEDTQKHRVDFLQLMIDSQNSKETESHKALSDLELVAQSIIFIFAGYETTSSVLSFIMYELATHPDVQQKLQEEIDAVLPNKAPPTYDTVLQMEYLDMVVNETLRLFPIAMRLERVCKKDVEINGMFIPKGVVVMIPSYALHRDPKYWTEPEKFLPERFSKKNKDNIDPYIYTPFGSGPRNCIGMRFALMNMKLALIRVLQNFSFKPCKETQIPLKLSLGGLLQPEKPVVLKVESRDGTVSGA
Test: qHTS Assay for Inhibitors and Substrates of Cytochrome P450 3A4 (AID 884; active = well fitted inhibition curve with a large enough effect; inconclusive = small, poorly fitted or top-dose-only effect; inactive = no such curve, though single readings can be large or run the other way; also: nearly all actives have a fitted effect of over 50% in size)
Settings: recombinant CYP3A4, Luciferin-PPXE luminescence; series mostly up to 57.1 µM; activity change, negative = inhibition: at the top concentration
Method in brief: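 Luminescent readout of luciferin produced by CYP3A4 (20 nM) dealkylation of Luciferin-PPXE, 25 uM (its KM). NADPH-driven reaction ran 60 min at RT after 10 min compound preincubation; data scaled to 57 uM ketoconazole as 100% inhibition.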

| Structure (SMILES) | Potency |
| --- | --- |
| Cn1cc(-c2nc3cncnc3n(C3CC3)c2=O)c2ccccc21 | inconclusive [inhibitor, partial curve] |
| CN(Cc1ccco1)c1cc(-c2cccnc2)ncn1 | active: 3.16 µM |
| COc1cccc(Nc2ncc3nc(-c4cn(C)c5ccccc45)c(=O)n(CCC#N)c3n2)c1 | inconclusive [inhibitor, full curve] |
